# Reference: PMC4336329 (PLoS ONE, 2015)
# The whole screen tested about 310,000 compounds, of which about 14,000 (4.5%) showed an effect of 50% or more. The effect is printed as a negative number. The list shows a part of the results.
# Biological target: human ether-à-go-go-related gene (hERG) potassium channel (human, UniProt Q12809)
# Experiment: primary screen, population patch clamp on CHO cells stably expressing hERG
# 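Also: peak tail current of the secondary pulse compared with the same well before compound.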
# human ether-à-go-go-related gene (hERG) potassium channel, sequence (Q12809 whole entry, looked up): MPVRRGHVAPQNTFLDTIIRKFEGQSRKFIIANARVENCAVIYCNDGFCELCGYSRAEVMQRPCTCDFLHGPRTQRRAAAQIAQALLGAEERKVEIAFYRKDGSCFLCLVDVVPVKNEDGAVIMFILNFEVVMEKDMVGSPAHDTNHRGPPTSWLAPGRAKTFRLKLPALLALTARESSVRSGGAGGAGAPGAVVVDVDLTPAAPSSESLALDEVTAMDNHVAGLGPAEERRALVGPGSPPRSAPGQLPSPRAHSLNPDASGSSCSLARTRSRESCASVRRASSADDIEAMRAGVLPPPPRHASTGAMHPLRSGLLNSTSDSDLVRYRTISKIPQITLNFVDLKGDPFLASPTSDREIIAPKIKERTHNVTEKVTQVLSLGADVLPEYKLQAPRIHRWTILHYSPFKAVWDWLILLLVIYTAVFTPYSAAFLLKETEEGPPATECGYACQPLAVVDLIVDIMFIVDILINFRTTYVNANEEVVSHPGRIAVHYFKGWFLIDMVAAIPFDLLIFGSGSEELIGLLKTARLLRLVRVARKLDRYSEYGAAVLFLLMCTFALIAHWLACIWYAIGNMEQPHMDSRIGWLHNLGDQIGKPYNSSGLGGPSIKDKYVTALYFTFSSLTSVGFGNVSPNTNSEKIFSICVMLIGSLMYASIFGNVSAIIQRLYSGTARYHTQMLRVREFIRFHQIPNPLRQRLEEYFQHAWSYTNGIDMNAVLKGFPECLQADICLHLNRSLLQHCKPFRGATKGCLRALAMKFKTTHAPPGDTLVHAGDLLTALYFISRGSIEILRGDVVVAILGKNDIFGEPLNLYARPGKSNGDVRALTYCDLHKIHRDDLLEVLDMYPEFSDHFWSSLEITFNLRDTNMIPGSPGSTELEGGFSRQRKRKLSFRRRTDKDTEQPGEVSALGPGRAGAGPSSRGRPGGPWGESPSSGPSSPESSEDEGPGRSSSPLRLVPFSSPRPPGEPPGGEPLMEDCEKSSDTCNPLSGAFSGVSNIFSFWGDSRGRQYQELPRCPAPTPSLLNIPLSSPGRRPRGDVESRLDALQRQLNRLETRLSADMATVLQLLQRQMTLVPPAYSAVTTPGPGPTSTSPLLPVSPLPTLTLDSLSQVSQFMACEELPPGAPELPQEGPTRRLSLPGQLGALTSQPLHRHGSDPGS
row,Structure (SMILES),"hERG current change (%, negative = inhibition) at 10uM [%]"
1,Cc1cccc(C)c1NC(=O)N1CCC(C(=O)c2ccc(F)cc2)CC1,-22.6
2,O=c1cc(N2CCc3ccccc32)[nH]c(=O)n1-c1ccccc1Cl,21.8
3,COC(=O)C1=C(CN2CCSCC2)NC(=O)NC1c1cc(C)ccc1C (stereo not shown),0.726
4,CCn1cc(C(=O)N2CC=C(c3ccccc3)CC2)c(=O)c2ccc(C)nc21,-14.6
5,CCN(CC(=O)NCc1ccc(F)cc1)C(=O)/C=C/c1ccc(OC)cc1,-48
6,COc1ccc(Cc2nc(-c3ccc(-n4cccc4)cc3)no2)cc1,8.02
7,O=C(Cc1cccs1)NNC(=S)NC(=O)c1ccco1,15.6
8,CN1CCC(=NNC(=O)CN(c2cccc(Br)c2)S(C)(=O)=O)CC1,1.73
9,OCc1c[nH]c(=S)n1CCOc1cccc(C(F)(F)F)c1,17.3
10,Cc1ccc2c(c1)N(CCC(=O)NCCN1CCOCC1)C(=O)CO2,-2.16
11,Cc1ccccc1C(=O)OC(C)C(=O)NCc1ccc2c(c1)OCO2 (stereo not shown),-22.4
12,COc1ccc(S(=O)(=O)N2CCCC2)c2ccccc12,24.9
13,CCN(CC)CCNC(=O)c1ccc(NC(=O)C2CCN(c3ncnc4sc(C)c(C)c34)CC2)cc1,-29.8
14,CC(NCc1ccccc1Cl)C(O)c1ccccc1.Cl (stereo not shown),4.31
15,O=C(CC(C(=O)O)c1c(F)cccc1Cl)c1ccc(Cl)cc1 (stereo not shown),17.9
16,CCOC(=O)COc1coc(CN2CCN(c3cccc(Cl)c3)CC2)cc1=O,-34.1
17,Cc1ccc(-c2cc(=O)c3ccc(F)cc3[nH]2)cc1,7.84
18,CC(C)Cn1c(CN2CCN(C)C(CCO)C2)nc2ccccc21 (stereo not shown),4.02
19,Br.CCC1CC(CSC(=N)N)OC1=O (stereo not shown),-1.22
20,O=C1C2C3C=CC(C2C(=O)N1CCO)C1C(=O)N(CCO)C(=O)C31 (stereo not shown),9.31
21,CSc1ccccc1OCc1cc(C(=O)NCc2cnc(C)cn2)no1,2.92
22,Cc1ccc(S(=O)(=O)N(C)C)cc1NC(=O)c1ccc2ccccc2n1,25.7

row,Structure (SMILES),"hERG current change (%, negative = inhibition) at 10uM [%]"
1,CCN1CCN(C(=O)c2ccc3c(c2)N(Cc2ccccc2F)C(=O)c2ccccc2S3(=O)=O)CC1,0.702
2,CCCn1c(SCC(=O)Nc2nnc(-c3ccccc3)s2)nnc1-c1ccccn1,5.96
3,COc1cc(/C=N/N2C(C)CCCC2C)cc(Br)c1O (stereo not shown),5.71
4,CCCN(CCC)C1=N/C(=C\c2ccco2)C(=O)N1c1ccccc1,-2.4
5,COCc1cc(C)nc(SCC(=O)Nc2cc3c(cc2C#N)OCO3)c1C#N,9.53
6,Cc1ccc(N2C(=O)Nc3ccccc3C2(O)C(=O)NCCCOC(C)C)cc1C (stereo not shown),19.7
7,CCN(CC)C(=O)C1CCCN(c2ccc([N+](=O)[O-])cc2/C=N/NC(=O)c2ccc([N+](=O)[O-])cc2)C1 (stereo not shown),-45
8,Cc1cccc(-n2c(C)c(C)c3c(N)ncnc32)c1,8.13
9,O=C(c1cc(Br)ccc1Cl)N1CCCC1,24.9
10,COc1ccc(C(=O)N2CCC3(CC2)NCCc2[nH]cnc23)cc1,-18.8
11,COc1cccc(C(=O)NC2CCSC2=O)c1 (stereo not shown),23.8
12,O=C(NNC1=NS(=O)(=O)c2ccccc21)c1ccc(Cl)cc1,23.5
13,O=C(COC(=O)C1CCN(S(=O)(=O)c2ccc3c(c2)OCCO3)CC1)NC1CCS(=O)(=O)C1 (stereo not shown),-9.56
14,Cc1cc(NC(=O)COC(=O)c2c(C)nn(Cc3ccccc3)c2Cl)no1,1.89
15,CN1CCN(c2ccccc2NS(=O)(=O)c2ccc3c(c2)CCN3C(=O)C2CCC2)CC1,-23.3
16,COCC(=O)Nc1cc(Cl)ccc1C,20.1
17,COc1ccccc1/C=C/C=N/NC(=O)c1cc(-c2ccco2)[nH]n1,-0.436
18,COc1ccc(NC(=O)Cn2nnc(-c3ccccc3F)n2)cc1Cl,5.56
19,COC(=O)c1ccc(CN2CCCC(CNC(=O)Cc3ccc(OC)cc3)C2)cc1 (stereo not shown),-14.7
20,Cc1onc(-c2ccccc2)c1C(=O)N1CCN(c2ccccc2F)CC1,1.53
21,O=C(Nc1ccc(Cl)c(C(=O)N2CCOCC2)c1)c1ccccc1,-7.98
22,C=C1CCN([C@@H](Cc2ccccc2)C(=O)Nc2ccc(OC)cc2)S(=O)(=O)c2ccccc21,-3.32

row,Structure (SMILES),"hERG current change (%, negative = inhibition) at 10uM [%]"
1,CC(=O)c1cccc(NC(=O)C2C3C=CC(C3=C(c3ccccc3)c3ccccc3)C2C(=O)O)c1 (stereo not shown),-23.1
2,O=c1[nH]c(=S)[nH]c(O)c1N=Nc1cc2c(cc1[N+](=O)[O-])OCO2,-4.2
3,Cc1ccc(-c2nnn(CC(=O)N(CCO)C(C(=O)NC(C)(C)C)c3ccncc3)n2)cc1 (stereo not shown),9.05
4,CN(C)C(=O)Oc1ccc(OCc2n(C)c3ccccc3[n+]2C)cc1.[Cl-],5.79
5,COc1ccc(/C=N/NC(=O)CNc2ccc(Br)cc2)c(C(=O)O)c1OC,13.9
6,COc1ccccc1CNC(=O)C(NC(=O)c1ccccc1)C(C)C (stereo not shown),6.98
7,Fc1ccc(/C=N/n2cnn(Cc3ccccc3Cl)c2=S)cc1,9.5
8,Cc1oc2c(C)c3oc(=O)c(CCC(=O)N4C[C@H]5C[C@@H](C4)c4cccc(=O)n4C5)c(C)c3cc2c1C,-51.7
9,Cc1nc2c(ccc3c([N+](=O)[O-])cccc32)c(C)c1C,28
10,COc1ccc(-c2nc3ccccc3nc2-c2ccccc2)cc1,19.7
11,COCCNC(=S)N1CCc2cc(OC)c(OC)cc2C1COc1ccc(F)cc1 (stereo not shown),-21.4
12,O=C(NNC1=Nc2ccccc2SC1)c1ccc(Cl)cc1,3.3
13,COc1cccc(-c2cc(C(=O)NCC3CCCO3)on2)c1 (stereo not shown),11
14,CNc1nc(SC)nc2ccsc12,3.42
15,OCC[C@H]1C[C@H](O)[C@@H](O)[C@@]2(CCc3ccccc3CO2)O1,7.83
16,Cc1nc2ccccc2c(=O)n1-c1ccc(NS(=O)(=O)c2ccccc2)cc1,-26.5
17,COc1ccc(F)cc1S(=O)(=O)NCC(=O)NCc1cc(=O)n(C)c(=O)n1C,22.7
18,Cc1ccc(CNc2ccc(N3C(=O)CC(C)C3=O)cc2[N+](=O)[O-])cc1 (stereo not shown),-4.21
19,CCN(CC)CCCNC(=O)Cn1cnc2ccc(S(=O)(=O)N3CCC(C)CC3)cc2c1=O,-0.31
20,Cn1cc(C(CO)Cc2ccccc2)c2ccccc21 (stereo not shown),11.4
21,CCc1nnc(NS(=O)(=O)c2ccc(NC(=O)c3ccccc3OC)cc2)s1,18.5
22,C/C(CC(=O)Nc1ccc2c(c1)OCO2)=N\NC(=O)OC(C)(C)C,-5.1

row,Structure (SMILES),"hERG current change (%, negative = inhibition) at 10uM [%]"
1,COc1ccc(CC(=O)Nc2cc(C)on2)cc1,5.74
2,O=C(CSc1n[nH]c(=O)[nH]c1=O)N/N=C/C=C\c1ccccc1,23.6
3,COc1cccc(CNc2nc3nc(C)cc(C)n3n2)c1,-15.6
4,Cc1nc2ccccc2n(CC(=O)Nc2cc(Cl)cc(Cl)c2)c1=O,25
5,Fc1ccc(Cn2nnc3ccccc32)cc1,4.22
6,COc1ccc(N=C2SCC(=O)N2c2ccc(OC)cc2)cc1,-14.4
7,COc1cc(C(=O)OC(C)CN2CCCC2)cc(OC)c1OC.Cl (stereo not shown),-12.2
8,O=[N+]([O-])c1ccc(S(=O)(=O)Nc2ccc3c(c2)OCCO3)cc1,3.95
9,CCCCC(CCC(=O)Nc1ccn(-c2ccccc2)n1)C(=O)O (stereo not shown),6.04
10,Oc1ccc(/C=N/NC(=S)NCCN2CCOCC2)c(O)c1,10.8
11,CN(C)CCCNc1nc(N)c([N+](=O)[O-])c(NCCO)n1,19.1
12,CC1CCCCN1C(=O)c1ccc(C(=O)Nc2ccc(F)cc2)cc1 (stereo not shown),-13.9
13,CCN(CC(=O)Nc1c(F)cccc1F)C(=O)c1nc2nccc(C)n2n1,0.506
14,COC(CN(C)C(=O)C1CCC(CNS(=O)(=O)c2ccccc2)CC1)OC (stereo not shown),9.87
15,CCCn1c(-c2ccc(OC)cc2)nc2c(=O)n(C)c(=O)[nH]c21,22.6
16,CC1=NNC(=O)C1CCC(=O)N/N=C/C=C/c1ccccc1 (stereo not shown),1.22
17,CCn1c(SCC(=O)NCCc2ccccc2)nc2c([nH]c3ccccc32)c1=O,17
18,COc1ccc(-c2nc(NC(=O)C3CC(=O)N(c4ccc5c(c4)OCCO5)C3)sc2C)cc1 (stereo not shown),32.7
19,O=C(NCc1ccco1)c1ccc(N2CCOCC2)c([N+](=O)[O-])c1,-1.79
20,C[C@@H](CN=[N+]=[N-])CN1CC[C@H](C(C)(C)C)CCC1=O,3.55
21,Clc1cccc(-c2nc(NCCN3CCOCC3)c3ccccc3n2)c1,-38.6
22,Cc1sc2nc(CN3CCOCC3)nc(N3CCC(C(N)=O)CC3)c2c1C,5.73
